The values that follow come from ChEMBL document CHEMBL4888484, “Replenishing the malaria drug discovery pipeline: Screening and hit evaluation of the MMV Hit Generation Library 1 (HGL1) against asexual blood stage Plasmodium falciparum ,using a nano luciferase reporter read-out” (2022).

Out of some 150,000 compounds screened, about 540 (0.36%) showed an effect of 50% or more. The list shows a part of the results.

The subject of this assay is Plasmodium falciparum. The assay can be described thus: Primary screen in NF54 nanoGlo assay, in single point, at 2uM, 72h; a lower Z score goes with more inhibition. In kind it is functional, Erythrocyte. The conditions noted are these: timepoint 72 hour.
`O=C(CCc1ccncc1)N1CCCC[C@@H]1CCc1cccc(O)c1`: the % Inhibition (usually the relative decrease from the control value, in per cent) is recorded as -20% and the Z score was found to be 1.86.
Taken in the same sequence, the figures for `CCc1nc(C2CCCN(C(=O)C3COc4ccccc4C3)C2)cc(=O)[nH]1` (configuration not stated) were -2% and 0.21.
On the same counts, the results for `C[C@@H](CC(N)=O)N(C)C(=O)Cc1ccc(CO)cc1` are -8% and 1.38.
For the molecule `COCCCNC(=O)[C@]1(C)Cn2nc(-c3ccccc3)cc2C(=O)N1Cc1cccc(C)c1`, the “% Inhibition” value came to 2% and the Z score is recorded as -0.34.
`Cc1ccc(N2C[C@@H](c3noc(-c4cccc(N(C)C)c4)n3)CC2=O)cc1`: the “% Inhibition” value worked out at 4% and the Z score is reported as -0.36.
Taken in the same sequence, the figures for `O=C(CN1C(=O)CCn2nc(-c3ccc(Cl)cc3)cc21)NCc1ccccc1` were -9% and 0.94.
Regarding `COc1ccc(CN(C)S(C)(=O)=O)cc1F`, the “% Inhibition” value is listed as 22% and the Z score is on record as -2.6.
With `COc1cccc(-c2ccc(N3CCN(C(=O)CN(Cc4ccccc4)C(=O)CC(C)C)CC3)nn2)c1`, the “% Inhibition” value is -19% and the Z score stood at 1.84.
In the case of `COc1ccc(NC(=O)CN2C(=O)[C@H]3CCCC3=Nc3ccccc32)cc1`, the “% Inhibition” value is 1% and the Z score is reported as -0.17.
Taken in the same sequence, the figures for `CO[C@H]1C[C@H](C(=O)Nc2cc(Cl)ccc2OC(C)C)N(S(C)(=O)=O)C1` were 9% and -1.5.
On the same counts, the results for `O=C(NCCc1ccc(=O)[nH]c1)C1CCC1c1ccc(F)cc1` (configuration not stated) are 1% and -0.1.
As for `CN1CCN(C(=O)c2cc(Br)c3c(c2)OCCO3)CC1`, the “% Inhibition” value is given as -5% and the Z score worked out at 0.83.
Regarding `CN1C(=O)C[C@H](NS(=O)(=O)CC2CCCC2)C1=O`, the “% Inhibition” value is -17% and the Z score is recorded as 3.13.
On the same counts, the results for `Cc1ccccc1-c1nnn(CC(=O)N(C2CCCCC2)C2CCCCC2)n1` are -9% and 1.28.
On to `Cc1c(C(=O)NCCC(C)C)c(C(F)(F)F)nn1C1CCN(C(C)C)CC1`, for which the “% Inhibition” value stood at 12% and the Z score is recorded as -1.38.
On the same counts, the results for `C[C@@H](Cn1cccn1)C(=O)NC1CCN(S(=O)(=O)c2ccccc2)CC1` are -23% and 3.9.
Taken in the same sequence, the figures for `CC(C)(C)OC(=O)N1CCC(c2nc(-c3ccccc3)no2)CC1` were 14% and -1.78.
On the same counts, the results for `CCCn1ncc(C(=O)N2CCc3nc(N)sc3C2)c1C` are 8% and -1.07.
As for `Cc1ccc(CN2CCC[C@H](Cn3c(C)cnc3C3CC3)C2)o1`, the “% Inhibition” value is -14% and the Z score is given as 1.78.
`O=C(Cc1ccsc1)NCc1cn(-c2cccnc2)nn1`: the “% Inhibition” value is 3% and the Z score is recorded as -0.5.
Consider `Cc1cc(NC(=O)N2CCNC(=O)CC2)nn1C1CCCCC1`, for which the “% Inhibition” value is reported as -4% and the Z score is reported as 0.85.
Regarding `Cc1occc1C(=O)NC[C@](C)(CC(C)C)NC(=O)c1ccoc1C`, the “% Inhibition” value is reported as -8% and the Z score is given as 1.03.
On the same counts, the results for `O=C1CCC(=O)N1c1ccc(-c2ccc(N3C(=O)CCC3=O)cc2)cc1` are -13% and 1.75.
Consider `CCn1cc(C(=O)N(Cc2ccc(OC)cc2OC)C2CCCC2)c(C)n1`, for which the “% Inhibition” value is recorded as -9% and the Z score turned out to be 1.46.
Taken in the same sequence, the figures for `Cn1cc(-c2ccn(Cc3cccc(C(=O)O)c3)n2)cn1` were -42% and 4.89.
Taken in the same sequence, the figures for `COC(=O)c1n[nH]cc1-c1cc(-c2cc3ccccn3c2)nc(N)c1C#N` were -7% and 1.27.
On the same counts, the results for `COc1ccc(CCC(=O)Nc2ccon2)cc1` are 3% and -0.36.
On to `CC(C)[C@H](C)N(C)c1nccn2cncc12`, for which the “% Inhibition” value is recorded as -4% and the Z score was determined as 0.41.
On the same counts, the results for `CCOC1CC(NC2CCN(C)C2=O)C1(CC)CC` (configuration not stated) are -12% and 1.24.
On to `CC(C)(N)COc1c(F)c(F)c(F)c(F)c1F`, for which the “% Inhibition” value is 4% and the Z score is given as -0.55.
On the same counts, the results for `COc1ccc(Cc2nc(-c3ccoc3)n(CC(C)(C)O)n2)cc1` are -11% and 2.18.
Taken in the same sequence, the figures for `C#CCCN1CCN(C(=O)[C@@H](C)CC(=O)OC)CC1` were -6% and 0.94.
Taken in the same sequence, the figures for `O=C1N[C@@](Cc2ccccc2Cl)(C2CCN(Cc3ccc4c(c3)CCO4)CC2)C(=O)N1CC1CC1` were 8% and -1.05.
As for `Cc1cc(C(=O)NCc2ccc(NC(=O)C(F)(F)F)nc2)nn1C`, the “% Inhibition” value was -7% and the Z score stood at 0.96.
On the same counts, the results for `CC1CN(C(C)C(=O)N2CC(=O)Nc3ccccc32)CCO1` (configuration not stated) are -5% and 0.57.
As for `C=C(c1ccc(C)cc1)n1c(=O)[nH]c2ccccc21`, the “% Inhibition” value is -8% and the Z score was 0.86.
Taken in the same sequence, the figures for `COCCN1CCC(C(=O)N2CCC(Oc3cccc(F)c3)CC2)CC1` were -13% and 1.46.
Taken in the same sequence, the figures for `COc1ccc(CC(=O)N2c3ccccc3C[C@H]2c2nc(C3CC3)no2)cc1OC` were -7% and 0.98.
For the molecule `COC(=O)c1n[nH]c2c1CN(c1nccc(C)n1)CC2`, the “% Inhibition” value was -8% and the Z score came to 0.89.
Taken in the same sequence, the figures for `CN(C)CC1CCC(NC(=O)c2cc(S(=O)(=O)N3CCCCC3)ccc2Cl)CC1` (configuration not stated) were -7% and 0.77.
Taken in the same sequence, the figures for `CN(C[C@H]1CCCN1C)c1ncc(C#N)c(N)n1` were -7% and 0.84.
For `CNC(=O)c1noc(CNC(=O)c2cccc(N3Cc4ccccc4C3)c2)n1`, the “% Inhibition” value is 10% and the Z score is given as -1.4.
On the same counts, the results for `c1cc(-c2noc(C3CC3)n2)ccc1O[C@H]1CCNC1` are -6% and 0.7.
Taken in the same sequence, the figures for `Cc1noc(C)c1C(=O)Nc1ccc2c(c1)C(=O)N(C)C2=O` were -24% and 2.86.
On the same counts, the results for `C[C@H]1CCN(CCNC(=O)Nc2cc3ccccc3nn2)C1` are 2% and -0.29.
With `CCc1ccccc1-n1c(=O)c2cc(C)ccc2n(CC(=O)N2CCOCC2)c1=O`, the “% Inhibition” value is on record as -26% and the Z score is recorded as 2.48.
Regarding `CC(C)Cc1cc(CN2C[C@H]3C[C@H](O)[C@H](O)C[C@H]3C2)n[nH]1`, the “% Inhibition” value is given as -5% and the Z score is listed as 0.54.
`CC(C)Nc1nc2nonc2n2cnnc12`: the “% Inhibition” value is reported as 77% and the Z score is -8.71.
On the same counts, the results for `Cc1nc(-c2ccccc2)cc2nn(CC(=O)N3CCOCC3)c(=O)n12` are 34% and -4.93.
On to `O=C1C[C@]2(NC(=O)c3ccc(C(F)F)cc3F)CCCC[C@@H]2N1`, for which the “% Inhibition” value was -3% and the Z score is listed as 0.37.
On the same counts, the results for `COc1c(C2CCCN2C2CC(C)OC2=O)c(C)nn1C` (configuration not stated) are -7% and 0.77.
Taken in the same sequence, the figures for `CC(C)[C@H](CO)CNC(=O)N(C)Cc1ncc[nH]1` were -12% and 1.63.
Taken in the same sequence, the figures for `CC(=O)Nc1ccc(NC(=O)CN2CC[C@H](c3ccncc3)C2)cc1` were -7% and 1.05.
In the case of `CCC(CC)NC(=O)CON=C(N)c1cccs1`, the “% Inhibition” value was -4% and the Z score is 0.53.
On the same counts, the results for `OC[C@@H]1COCCN(Cc2ccc(Cl)s2)C1` are 20% and -2.51.
Taken in the same sequence, the figures for `CN1C(=O)C[C@H](NS(=O)(=O)CCc2cccs2)C1=O` were -2% and 0.35.
In the case of `CCn1ccc2cc(CN3C[C@@H]4[C@H](C3)[C@H]4C(=O)O)ccc21`, the “% Inhibition” value is listed as -3% and the Z score is given as 0.67.
`CCCc1nc(Cn2c(C(C)C)cc(=O)c3cccc(CC)c32)no1`: the “% Inhibition” value is listed as -4% and the Z score stood at 0.47.
`CC(C)N1CCN(C(=O)c2nc(-c3ccnc(N4CCCC4)c3)no2)CC1`: the “% Inhibition” value is reported as -15% and the Z score came to 2.62.
Taken in the same sequence, the figures for `Cc1ccccc1CN1C(=O)CCn2nccc21` were -5% and 0.69.
With `O=C(Cc1ccccc1)Nc1ccc2c(c1)Cc1cc(NC(=O)Cc3ccccc3)ccc1-2`, the “% Inhibition” value was -17% and the Z score amounted to 2.15.
On the same counts, the results for `CC1CCCC(OC(C)C(=O)N2CC3CCCC(C2)C3O)C1` (configuration not stated) are 10% and -0.86.
On the same counts, the results for `CCN(CC)c1nc2cc(C(=O)NCc3ccccc3)ccc2c(=O)n1Cc1ccc(C)cc1` are -9% and 1.6.
Take `COc1ccccc1NC(=O)c1sc(=S)n(Cc2ccccc2)c1N`: the “% Inhibition” value was 3% and the Z score is recorded as -0.31.
On the same counts, the results for `C[C@H]1Cc2cc(S(=O)(=O)Nc3nnc(C4CC4)o3)ccc2O1` are -16% and 1.37.
On the same counts, the results for `COCC[C@](C)(O)CNC(=O)c1csc(C2CCCCC2)c1` are 10% and -1.23.
For `COc1ccc(C[C@]2(C)OC(c3ccccc3)=NN2C(C)=O)cc1`, the “% Inhibition” value is on record as -1% and the Z score was 0.14.
Regarding `Cc1oc2ncnc(N3CCC[C@H](C(=O)NCc4ccc5c(c4)OCO5)C3)c2c1C`, the “% Inhibition” value is given as 3% and the Z score is on record as -0.31.
Taken in the same sequence, the figures for `O=C(Cc1cccs1)NCc1nn(C2CCCC2)c2c1COCC2` were -16% and 3.02.
On the same counts, the results for `O=c1nc(C(F)(F)F)ccn1Cc1nnc2n1CCOCC2` are -14% and 2.72.
Turning to `CC[C@@H](CC#N)OC(=O)c1cccc(F)c1`, the “% Inhibition” value is -14% and the Z score was found to be 2.56.
On the same counts, the results for `O=C(Cc1noc(-c2cccc3[nH]ccc23)n1)NC1CCCC1` are 0% and 0.01.
On the same counts, the results for `Cn1c(=O)n(-c2ccc(N)cc2)c(=O)n1C` are 3% and -0.35.
On the same counts, the results for `CCc1nc(Cc2ncccc2C)n(CCO)n1` are 9% and -1.65.
Turning to `Cc1nonc1CN(C)C(=O)c1ccccc1NCc1cccs1`, the “% Inhibition” value is -1% and the Z score was determined as 0.15.
On the same counts, the results for `CC(C)Cc1cc(Cn2cnc(-c3ccccc3)c2-c2ncc[nH]2)on1` are -2% and 0.28.
On the same counts, the results for `O=C(CCCc1ccc(F)c(F)c1)NC1CCCC1C(=O)O` (configuration not stated) are -11% and 1.46.
As for `Nc1cccc(-c2nnc(-c3cccnc3)[nH]2)c1`, the “% Inhibition” value is listed as 3% and the Z score is -0.41.
Taken in the same sequence, the figures for `CC(C)COCCCNS(=O)(=O)c1ccc(C(N)=O)cc1` were -1% and 0.28.
On the same counts, the results for `CCn1cc(NC(=O)c2cc(C3CC3)nc3onc(-c4cccc(OC)c4)c23)cn1` are -4% and 0.58.
On the same counts, the results for `Cn1c(CNc2nc(C3CCCC3)ns2)nc2ccccc21` are 16% and -2.
Turning to `CC(C)(O)[C@H](Oc1ccccc1)c1nc(-c2cnccn2)no1`, the “% Inhibition” value is reported as -2% and the Z score is 0.34.
`C[C@H]1CC[C@@H](C(=O)O)N1S(=O)(=O)c1ccc2nc(C(C)(C)C)sc2c1`: the “% Inhibition” value is on record as -10% and the Z score stood at 1.54.
On the same counts, the results for `Cn1cnn(C[C@H]2CCCC2(F)F)c1=O` are -7% and 0.98.
Taken in the same sequence, the figures for `COc1ccc(CN2C[C@H]3CN(S(=O)(=O)c4ccc(Cl)cc4)CCN3C2=O)cc1` were -12% and 1.57.
Taken in the same sequence, the figures for `CCn1nc(C)c(CN/C(=N\c2ccc(F)c(Cl)c2)NC(=O)c2ccccc2C)c1C` were -5% and 0.88.
